# Laboratory results reported in PubChem BioAssay AID504832 (National Center for Advancing Translational Sciences (NCATS), 2011).
# Out of some 310,000 compounds screened, about 18,000 (5.8%) were called active. Inconclusive results, whose numbers are uncertain, are shown with a selection of clear calls. The call rests on the fitted dose curve; in most records, active means well fitted inhibition curve with a large enough effect; inconclusive means small, poorly fitted or top-dose-only effect, or another doubt; inactive means no such curve, though single readings can be large or run the other way. Potencies of inconclusive entries are left out as doubtful fits.
# Experiment: Primary qHTS for delayed death inhibitors of the malarial parasite plastid, 48 hour incubation
# Conditions: P. falciparum luciferase growth in erythrocytes; series mostly up to 28.7 µM
# How it was run: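 Luciferase-expressing P. falciparum in infected erythrocytes (2% hematocrit, 0.1% parasitemia final) in RPMI 1640/0.5% Albumax were exposed to compound for 48 hours at 37 C, 5% CO2; growth read as luminescence.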
# Potency means the concentration at half of the fitted maximal effect; tags describe the fitted curve by direction and shape.
row,SMILES,Potency
1,O=C(CCn1c(=O)oc2ccccc21)Nc1cccc([N+](=O)[O-])c1,inactive
2,CS(=O)(=O)NN1C(=O)c2ccccc2NC1c1ccccc1O (centres undefined),"inconclusive [inhibitor, single point]"
3,COc1ccc(CCNC(=O)c2ccc3c(c2)N(Cc2ccc(F)cc2)CCS3)cc1OC,"inconclusive [inhibitor, partial curve, poor fit]"
4,S=c1[nH]nc(CSCCOc2ccccc2)o1,inactive
5,Cc1ccccc1-n1c(/C=C/c2ccccn2)nc2ccccc2c1=O,"inconclusive [inhibitor, single point]"
6,COCc1cc(=O)n2[nH]c(-c3cccs3)cc2n1,"inconclusive [inhibitor, single point]"
7,COc1ccc(CCN2CC(C(=O)OCC(=O)Nc3c(C)nn(-c4ccccc4)c3C)CC2=O)cc1OC (centres undefined),"inconclusive [inhibitor, single point]"
8,CCOC(=O)c1cc2c(s1)-c1ccccc1CC2,inactive
9,CCC1CCCCN1c1ccc([N+](=O)[O-])cc1/C=N/NC(=O)Cn1c2ccccc2c(=O)c2ccccc21 (centres undefined),"inconclusive [inhibitor, single point]"
10,Cc1ccccc1CSCC(Nc1ccc(C(=O)O)cc1[N+](=O)[O-])C(=O)O (centres undefined),inactive
11,CCc1cccc2c3c([nH]c12)[C@@](CC)(CC(=O)O)OCC3,inactive
12,O=C(Nc1ccncc1)OCc1ccccc1,"inconclusive [inhibitor, full curve, poor fit]"
13,CCC(=O)Nc1cc(Cl)ccc1N1CCN(C(=O)CC)CC1,"inconclusive [inhibitor, partial curve, poor fit]"
14,CC(=O)N=c1c(C#N)cc2c(=O)n3ccccc3nc2n1Cc1ccccc1,"inconclusive [inhibitor, single point]"
15,O=C1C2=C(NC(=S)NC2c2ccc(Cl)cc2)NC(c2ccc(Cl)cc2)N1c1ccc(Cl)cc1 (centres undefined),"inconclusive [inhibitor, single point]"
16,O=C(O)CSc1cc(NS(=O)(=O)c2ccc(Cl)cc2)c2ccccc2c1O,"inconclusive [inhibitor, single point]"
17,Cc1ccccc1-n1c(SCc2cccc(F)c2)nc2[nH]ncc2c1=O,"inconclusive [inhibitor, single point]"
18,COc1ccc(CNC(=O)COC(=O)c2ccc(F)c(S(=O)(=O)N3CCCCC3)c2)cc1OC,"inconclusive [inhibitor, full curve]"
19,Nc1c(N(Cc2ccco2)C(=O)c2ccc(Cl)cc2)c(=O)[nH]c(=O)n1Cc1ccccc1,"inconclusive [inhibitor, partial curve, poor fit]"
20,CCCCCCCNC(=O)C1(CC2CC(c3ccccc3)=NO2)CCNCC1 (centres undefined),active: 11.7 µM
21,CCN(Cc1ccc2c(c1)OCO2)C(=O)CSc1nc(C)nc2sc(C)c(C)c12,"inconclusive [inhibitor, partial curve]"
22,CN(C)S(=O)(=O)c1ccc(C(=O)Nc2nc(-c3ccccc3)c(C(=O)c3ccccc3)s2)cc1,inactive

row,SMILES,Potency
1,Nc1c(Cl)cc(C2=NCCn3nc4cc([N+](=O)[O-])ccc4c32)cc1Cl,"inconclusive [inhibitor, single point]"
2,Cc1ccc(-n2c(CNc3cccc(Cl)c3)n[nH]c2=S)cc1,active: 8.28 µM
3,O=C(COc1ccccc1)Nc1cccc(-c2cn3cccnc3n2)c1,active: 9.28 µM
4,O=C(NC1=NCCS1)C1Cc2ccccc2CN1C(=O)c1ccccc1 (centres undefined),inactive
5,O=C(Nc1ccon1)c1ccc(F)c(S(=O)(=O)N2CCCCC2)c1,"inconclusive [inhibitor, single point]"
6,Cc1ccccc1CN(C)C(=O)[C@H](Cc1ccccc1)NC(=O)c1ccco1,"inconclusive [inhibitor, partial curve, poor fit]"
7,Oc1c(C(c2ccccc2)N2CCCCC2)sc2ncnn12 (centres undefined),"inconclusive [inhibitor, single point]"
8,Cc1ccccc1Cn1ccc(-c2ccc3c(c2)OCO3)n1,inactive
9,CCOc1ccc(C(=O)N(Cc2ccc(OC)cc2)Cc2cc3cc(OC)ccc3[nH]c2=O)cc1,"inconclusive [inhibitor, partial curve]"
10,COc1cc2c(cc1OC)C(C(=O)Nc1ccc3c(c1)OCCO3)C(c1cccnc1)N(C)C2=O (centres undefined),active: 7.38 µM
11,COc1ccc(Cn2c(=O)n(Cc3ccco3)c(=N)c3c4c(sc32)COC(C)(C)C4)cc1,active: 5.86 µM
12,Nc1ccc2cc3ccc(N)cc3nc2c1,active: 3.79 µM
13,COc1ccccc1N1CCN(C(=O)c2cc(-c3ccccc3O)on2)CC1,"inconclusive [inhibitor, single point]"
14,CC1CCN(C(=O)CCNS(=O)(=O)c2ccc(Br)cc2)CC1,"inconclusive [inhibitor, single point]"
15,CCOC(=O)c1c(NC(=S)N2CCN(C)CC2)sc(C)c1-c1ccccc1,"inconclusive [inhibitor, single point]"
16,COc1cc(C(=O)N2CCN(Cc3ccc4c(c3)OCO4)CC2)cc(OC)c1OC,"inconclusive [inhibitor, full curve, poor fit]"
17,C=CCc1ccc(OCCCCNC2CCCC2)c(OC)c1,inactive
18,COCc1ccc(C(=O)N2CCCC(N3CCN(c4ccc(F)cc4)CC3)C2)o1 (centres undefined),"inconclusive [inhibitor, partial curve, poor fit]"
19,O=C(CC1C(=O)NCCN1CC1CCCCC1)NCc1cc(F)ccc1F (centres undefined),inactive
20,O=C(CSc1cccc[n+]1[O-])Nc1ccc(C(F)(F)F)cc1[N+](=O)[O-],"inconclusive [inhibitor, single point]"
21,Cc1cc(C)c(C)c(OCCCN(C)C)c1,"inconclusive [inhibitor, full curve]"
22,Cc1ccnc(NC(=O)C23CC4CC(CC(C4)C2)C3)c1,"inconclusive [inhibitor, single point]"
